Article PMC5402319

These sequences were tested against T1, His6-σ8 (SigB-like sigma factor) (Streptomyces avermitilis) (UniProt Q82PY0) (assay: EMSA). Settings: EMSA with 0.15 nM DIG-labeled probe, 0.25-1 uM His6-σ8, ~300-fold excess unlabeled competitor; buffer, salt, pH and temperature not given (as in Sun et al. …).
T1 sequence: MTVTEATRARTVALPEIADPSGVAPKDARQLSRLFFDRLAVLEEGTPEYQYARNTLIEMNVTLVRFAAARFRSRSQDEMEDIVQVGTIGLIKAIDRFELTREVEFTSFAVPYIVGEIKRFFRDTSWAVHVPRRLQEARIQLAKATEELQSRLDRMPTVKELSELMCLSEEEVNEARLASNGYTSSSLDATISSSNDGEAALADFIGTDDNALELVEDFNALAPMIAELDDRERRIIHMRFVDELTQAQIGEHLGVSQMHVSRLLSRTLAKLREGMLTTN

| Sequence | binding |
| --- | --- |
| AATCAAGCATTCCGCACCGGGAGCGCTGGTGAGGAGCAGGGAATCTTTGCAGTCTCGTGAACACGGGAATCTCCACGGCCGCGGGAACGCTGAAGGCGGGGATGACCGGACTTGTGGTGTGCGTGGTGGTGCTCGTGGTGGCGAGCGCGTACGGAGTGCTGCATCGGCGGCGGAGCGGGAGAGTGAGA (double strand) [trxA4p] | no binding |
| AGACTACCGCCTCTTCAGACCCCCGATTCGGCCACCCCACGTCAAGAATCCATTACAAAGCGTCTGCGACTCATCGGCAGAGCGTCCACCAGTCGTTCACAACCGGCCACGCATTGAGGCCAATCGGTGACCAGAATCCTCTTGACCGACCGAGAACCGGCTGGATTGGATCAGTAGACAAAGGTGCCGGACTTCCGCGCACCCCGCCATCTCCATGCTCCCCACACCATCCGAGCCCGGAACGGGAATTGTGACTTCTACCGCGAAGAGCAGCAGGTCAAGGACGAGAAACCC (double strand) [opuBC1p] | binds |
| AGTGCTGTCGTCGCTCATCGCCTCTCCTTCGCAGGTCGATGCCGTTCATGGGCCCGTCATCCGTTGGATGACATGCAGCTTGTCGTCGTTCAGATGACATGCTACAACGGAGTCAGGTGAAGCGCATTGGCAGCAACTGCCTGAACTCATCTGGAGGTGTTTACCGTGTTGATG (double strand) [hsp18_2p] | no binding |
| ATCAACATCGTGAAACACCTCCAGGGTTCAAGGTCAGGCAGTGCTGCCAATGCGTTCACCTGACATCGTTGTAACATGTCATCCAAGCGATGACAAGTTTGACGTCATCAAGATGACGACATGGCCATTGGAGGCCCGATGACCAGGGACGAT (double strand) [hsp18_1p] | no binding |
| ATCGCTCTCTTCCCAGGCGCCCCATGGCATCTGTGTGCGGCGCCCCATCTCCGTGTGCCCGGACACACCGGGAATGCTGGCCCCTTAGGATCCGTTGGGTGGGGTGAGAGTTCTGAGAGAGGCTCCCACCGGTAGTACGAAGCAGTCTCCAGAGACGAGGAATCAAGCCGTGAGCGAC (double strand) [trxB1p] | no binding |
| CGAACTGGATCATGAGGTGTCCCTTGCCCGGCCTGCATATCGTCATGCAGAGTTCTCGGTGTCTGAATAGATTGTCAATGGTCCGGCGTTAAGCGCTGGTTACTTATGACCGCCAGGCAAGATCCGATGTCCGGGTTGAGGGGAGTTTGCGCGTGATGTCGTCTCGGATCGTGGATACGTCGACCGTGGAAGTGAGCCCCGCGTCGACCGGGATCGTGGTCCTCGACGGCTGTGGAATC (double strand) [opuBA1p] | binds |
| CGCAAGATCTATGTCGACCTCACGAAGGAGCAGATCAAGGACTCCCCGGAGTTCGACAAGGACAAGCACGCCGGTGACGCCGGCTACCACGAGCAGGTCGGCAGCTACTACCAGAGCCACCGACGCGTCTGACCTCACAGCGCCACCCCGCAAGTGGGGCCGACCAAAGTGTCTTTGGTCGGCCCC (double strand) [sig8p] | binds |
| CGGTGGCTGAGTTCTGGTTGTCGGCGACCGGGGCGCCGGACTCGGTCGTAAGCACGCGCTTCGACATCGTGCACCTTCCATGCGAGGGGCAGCGGAAACCTTCTTCCGCTTCGTGGAGCCTAGGTATGGGACCTTCTAGGCGTCAACACTTTGTTGAAGTTGGTTCCGGGCGGCGCCACCGCTTGGGCGCGACGGGACAGATGTCAGCGGCGGCGCCGCCCGGAGGTCTCAGAGCCGCGCGCCCGAGAGGCGCTCCACGGACCT (double strand) [katA3p] | no binding |
| CTCTCGGAACGTTGGAAAACGGCTTCCGGCCCCGTCCGTAACGGACAGGAACCGACGACCGCCGACTTGGGGATGGGCCGACGGCGCGGGTGGGGCCGGGAAGATGCACAGCGCCGTAAACGGCGTCCGTATTCCCTCCTCGGCTGTCACCTCTTAGGTCATCGCGCAGTGCCGAGGAGCGTTACGCCCAATCCGCGTGGCCCGAGTCACACCCCGTAACCACTCAAAAACGACTAGATGCGGTCATAGGTGGTCAACGATG (double strand) [hrdB] | no binding |
| GAGAAGCCGAGCACCTGGGCGTCACGGTCGGCGAACTCGTCGTTCAGCTTGCCGAAGGCCGCGATCTCGGTCGGGCACACGAAGGTGAAGTCCTTGGGCCACGCGAAGATGACCTTCCACTGACCCTCGTAGGTCTTGTGGTTGATCTGCTGGAACTCATTGCCCTTCTCCAGCG (double strand) [oxyR_ahpCD_int] | binds |
| GCCATACGGTGTCGTCGCTGGTCATGCGTACGAGGGTACGGGGAGCAGGGGGCAAAGGGGAGGCAACGGCAACCTGCTTGTAACCACGAACCCCCTGTTGCGCTACGCGCGTTGAATCTAGGCTGCGCGAACCACCGCCTTGGCACAGCCTTTACACAACTCACGCAGGGGGGCCCATGCCGCCGACGTACCGGCACAGACGTATCCACCGCATCCTCTCC (double strand) [mshDp] | binds |
| GCGGAAGGCGGCTGACCAGAGGGCCCTGCAAGAAACCAGCATAGCGGTTTGTTTGTGGCGCCCGTCACCACTTCGCCGACGCGGTACCCCCGGAGGCCAGGCACCGGTCACTGCCGCCGCCCGCGCTGCCCGCTGCCGCCGCCGAGCCGTACCGCGCGGCTCGGGCGTCGCGCATGCCGTCAGGCCCCCGGCACCTCCCTG (double strand) [avaR2p] | no binding |
| GCTCCCAGGTGAACTCTGGGCGACGAGTGTTCGAGGTCGCACGCCGATGGCTGTGGTCAGGTGGGACGACATGCCTAACCTGGATGCATGGAC (double strand) [phoRp] | no binding |
| GGACTCGCTGTTCTGATTGTCGGCTACCGGTGCACCGGCCTCCGTCGTGAGCGGTCCCTGCGTCACGTGCGCCTCCTGCGTCATTCCTGCAAGTCCTGTCCCTTGGCCAATGCCGGTCACGATCCTACAATGGACAATGTCTAAGTCAAGTAAAGCTCCAAAGTCACACCCGTTCGGGAACTGGTCCCCCTACTGTTAGGCTTGTCTGTATGAGTGACCTACTGGAACGACTGCGC (double strand) [catR_katA1_int] | binds |
| GGTGTACGGAGCCTTCTGGGGTGCCTGGGTCACGAGCGTCCTCCCGTCAAAGAAGAGGGTCGTTAGGTCGCTTCGCTCACCCCAGCAGTCAACTCCGCCGACGGGACGTCGGCAACATTTGGACGGGATCCAACTTCGGTTCGGTTCTGGGCGGAGGTGATCCCGGGGCGAGACGGGACGCGTACCCCCTCAGCTCCGGTTCAACTCGAACCAGACCACCTTTCC (double strand) [katA2p] | no binding |
| GTGGCGTTCCTCCTCGCTGCGGGCATGCCGGTCGGGACGGCGTGGAGCGCCCTCCAAGACATGCGAACGCCGGAGCGAGCCGCTCCATTTCCCCTTTGCTCATCTTTGCCGAATCATTACCGCGGATCGCTCAACCGTTCGACGAAAGGGTGCGTGAACGCCGGACGTCCCGGAAGCCGGGGCCGCATACCCTCGTACCCATGACAGCCCGCGCAGCCTCCCGCCCCGTGGGAACGGTGACGCGCGGGACCACGAACCCGAAC (double strand) [mshAp] | binds |
| TGACCCCTCCCGCCACTTCCCCCGGCACTTTCCATCGCTTCTCGCCGTGAATTGCAGAGATTCCCCACACACTTATCCCGTTATTAATTCAGAACAGCTTCCCGCATTCTTCTGCCCGCTTTCTTTCGTGCTAAACGCAAAGATTTCGCGAACACCAACCGGCTTAATTCGGGCAGGTCCCGCACGGGTCGTCCACTTGTGATCGACTCCACATCGCACCCCTTTCCTCCCGTATTTTCCGGACAAAATGGGGGTTATCGACGC (double strand) [ectAp] | binds |
| TGGACCCACCCTACGAGGGGTCTCCCCCTCACTTGCCTCGCGGCCTGCTGTCATCTCGTCGTCGAGCACGTGATCGGCCCGAGTGCTCATGGTGTCCTCCCGTGAGTGCCCCGGTCGGCGTATCGGTGGCGGAGCGGGACACGGGTGCGGGAGCTCCGCATCAGGCGGCCGTCCGGAGATCGGATCGGCAGTCCCGGCAGAGACCGGGGTCAGGGGCGCGGAAGGCGCGGTCGCAGCCGTCACAGGTCT (double strand) [mshBp] | no binding |
| TGGTGTGTGGTCTGCGTCATGGCGGCAGGGTCGCTCCGTTCCGCAAGGTGCGCAATAGTTGGCTTGTCCGCTGGACAATGTGTTCAGTGCACCGCCCATGGCGTGGGGCTGCATGTACAGGATGACCACTGG (double strand) [sav_5148p] | binds |
| TTAGTCGTGCCCAGGTCGATGCCGACCGCACGTGCCATTTCAATTCCTCCAGCAATGACTTGAGTGGAACGGACTCAAGTGTGCATCACCCAAGTCGCTGGGTCAACAGACCTGAGTCGAGCCGACTCAAGTCTTATCCGCTCCT (double strand) [dnaK1p] | binds |
| TTCGGACAACTGACGGTCGTCGCCTGCATCGTGCTCATGCCGCCCACGCTCCCTTCACGTCCTCGGGCTGGTCGTAGGTGACCACCAGCTCTCCGTGCTCGGCGTCGACGCGGACCGTCGCGCCGTCCTGGACGTCGCCGCGCAGCAGGGCGCGTCCGACCAGTGTCTCGACCTCGTGGGAGATGTAGC (double strand) [trxA2p] | no binding |
